About 4,000 (1%) of roughly 390,000 compounds were called active. Inconclusive results, whose numbers are uncertain, are shown with a selection of clear calls. Calls come from the whole dose curve; as a rule, active = well fitted inhibition curve with a large enough effect; inconclusive = small, poorly fitted or top-dose-only effect; inactive = no such curve, though single readings can be large or run the other way. Potencies of inconclusive entries are doubtful fits and often do not repeat.
Target: Thioredoxin reductase 1, cytoplasmic (Rattus norvegicus) (UniProt O89049)
UniProt O89049, sequence (O89049 whole entry, looked up): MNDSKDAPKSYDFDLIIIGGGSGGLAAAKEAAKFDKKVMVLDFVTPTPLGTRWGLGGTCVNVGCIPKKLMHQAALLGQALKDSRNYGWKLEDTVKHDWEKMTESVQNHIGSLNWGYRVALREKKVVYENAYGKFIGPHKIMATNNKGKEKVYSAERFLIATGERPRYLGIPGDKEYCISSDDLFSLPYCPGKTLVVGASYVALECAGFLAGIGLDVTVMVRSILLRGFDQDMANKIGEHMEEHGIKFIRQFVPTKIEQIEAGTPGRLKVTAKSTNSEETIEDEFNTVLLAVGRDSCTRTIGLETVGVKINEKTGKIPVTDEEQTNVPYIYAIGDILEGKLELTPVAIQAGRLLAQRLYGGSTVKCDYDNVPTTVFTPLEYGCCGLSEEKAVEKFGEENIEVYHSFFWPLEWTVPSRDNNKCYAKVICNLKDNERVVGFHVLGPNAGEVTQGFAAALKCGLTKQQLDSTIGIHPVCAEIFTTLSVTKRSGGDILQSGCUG
Experiment: qHTS Assay for Inhibitors of Mammalian Selenoprotein Thioredoxin Reductase 1 (TrxR1): qHTS; note: nearly all actives have a fitted effect of over 65% in size
Conditions: recombinant rTrxR1, NADPH fluorescence consumption, selenite substrate; series mostly up to 114 µM
In short: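 Rat TrxR1 (90 nM in the dispensed reagent) was pre-reduced with 400 uM NADPH for 5 min at room temperature, then incubated with compound for 15 min. After 400 uM selenite was added, NADPH fluorescence (Ex 340/Em 450 nm) was followed for 8 min.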
Potency is the fitted concentration of half-maximal effect; tags give direction and shape of the fitted curve.

| Compound | Potency |
| --- | --- |
| Brc1ccc(C2=Nc3cccc4cccc(c34)N2)o1 | inconclusive: 56.2 µM [inhibitor, partial curve] |
| N#C/C(=C\c1ccc(O)c(O)c1)C(=O)Nc1ccccc1 | inconclusive: 0.0053 µM [inhibitor, full curve, poor fit] |
| CCCCCCCCCCCCCCCC[n+]1ccc(/C=C/c2c[nH]c3ccccc23)c2ccccc21 | inconclusive: 50.1 µM [inhibitor, partial curve, poor fit] |
| COC(=O)c1ccc(COc2ccccc2/C=N/Nc2cccc(C(=O)O)c2)cc1 | inactive |
| CS(=O)(=O)N(Cc1ccccc1)c1ccc(C(=O)NCCSCc2ccco2)cc1 | inconclusive: 22.4 µM [inhibitor, partial curve] |
| CC(C)(CO)CNC(=O)CC1C(=O)NCCN1CC(c1ccccc1)c1ccccc1 (stereo not drawn) | inconclusive: 39.8 µM [inhibitor, single point] |
| CCN1CCN(C(c2cccc(Cl)c2)c2c(O)cc(C)n(CCOC)c2=O)CC1 (stereo not drawn) | inconclusive: 8.91 µM [inhibitor, partial curve, poor fit] |
| CCn1c(CCCCc2n[nH]c(=S)n2CC)n[nH]c1=S | inconclusive: 10 µM [inhibitor, full curve] |
| O=C1Nc2ccccc2C1=NN1CCCCCC1 | inactive |
| COc1cc(/C=C2/CCCC(C(=O)C(F)(F)F)=C2O)ccc1O | inconclusive: 1.78 µM [inhibitor, full curve] |
| COc1cc(C(=O)Sc2ccc(C)cc2)cc(OC)c1OC | inconclusive: 50.1 µM [inhibitor, partial curve] |
| COc1cc(C(=O)N/N=C/c2coc3ccc(Cl)cc3c2=O)ccc1O | inconclusive: 35.5 µM [inhibitor, full curve] |
| C#Cc1ccc([C@@H]2C=C(C(=O)N3CCN(Cc4ccc5c(c4)OCO5)CC3)O[C@H](OCCCCO)C2)cc1 | inconclusive: 56.2 µM [inhibitor, partial curve, poor fit] |
| COc1cccc(CN2CCNC(=O)C2CC(=O)NC2CCCC2)c1OC (stereo not drawn) | inconclusive: 70.8 µM [inhibitor, partial curve] |
| CC(C)c1ccc(NC(=O)C(c2ccc3c(c2)OCO3)N2CCC3(CC2)OCCO3)cc1 (stereo not drawn) | inactive |
| COc1ccc(-c2cc(C(F)(F)F)nc(S(=O)(=O)CCC(=O)N3CCOCC3)n2)cc1 | inconclusive: 28.2 µM [inhibitor, single point] |
| O=C(CN1C(=O)COc2ccc(S(=O)(=O)N3CCCC3)cc21)N1CCN(c2ccccc2F)CC1 | inactive |
| CCCCCCOc1ccc(-c2nc3ccc(Br)cc3c(=O)o2)cc1 | inactive |
